Test results reported in the RNAGym collection of RNA variant scans (doi:10.7554/elife.90254).
The source gives no read counts; variants with many changes may rest on few reads.

B1: LINE1-mini (parent)
chain: GGCAGAGCUCAACACAGCGUGGCAAAGUGGCUGUGGCUAGACUGCC

Variants of: B1
Assay: self-cleavage, relative activity (ratio to wild type); higher = more cleavage; in vitro, sequencing; the parent is a self-cleaving ribozyme

Variant | self-cleavage
GGCAGAGCUCAACACAGCGUGGCAAAGUGGCUGUGACUAGCCGGCC | 0.02
GGCAGAGCUCAACACAGCGUGGCAAAGUGGCUGUGACUAGGCCGCC | 0.17
GGCAGAGCUCAACACAGCGUGGCAAAGUGGCUGUGAGUAGAUUGCC | 0.07
GGCAGAGCUCAACACAGCGUGGCAAAGUGGCUGUGAGUACACUGCC | 0.06
GGCAGAGCUCAACACAGCGUGGCAAAGUGGCUGUGAUCAGAGUGCC | 0.01
GGCAGAGCUCAACACAGCGUGGCAAAGUGGCUGUGACUAGACUUCA | 0
GGCAGAGCUCAACACAGCGUGGCAAAGUGGCUGUGCCUCGACUGAC | 0.04
GGCAGAGCUCAACACAGCGUGGCAAAGUGGCUGUGCCUGGGCUGCG | 0.01
GGCAGAGCUCAACACAGCGUGGCAAAGUGGCUGUGCCUUUACUGCC | 0.15
GGCAGAGCUCAACACAGCGUGGCAAAGUGGCUGUGCAUAUACUGCC | 0.55
GGCAGAGCUCAACACAGCGUGGCAAAGUGGCUGUGCGUGGACUACC | 0.04
GGCAGAGCUCAACACAGCGUGGCAAAGUGGCUGUGCUUAGACUGUC | 0.04
GGCAGAGCUCAACACAGCGUGGCAAAGUGGCUGUGCUUAGACUACC | 0.02
GGCAGAGCUCAACACAGCGUGGCAAAGUGGCUGUGCCUAGAUUGGC | 0.02
GGCAGAGCUCAACACAGCGUGGCAAAGUGGCUGUGCCAAAACUGCC | 0.02
GGCAGAGCUCAACACAGCGUGGCAAAGUGGCUGUGCCUAGACCCCC | 0.1
GGCAGAGCUCAACACAGCGUGGCAAAGUGGCUGUGUCUCGACUCCC | 0.07
GGCAGAGCUCAACACAGCGUGGCAAAGUGGCUGUGUCUAGGCAGCC | 0.07
GGCAGAGCUCAACACAGCGUGGCAAAGUGGCUGUGUCUAGUCUGGU | 0.03

Variant | self-cleavage
GGCAGAGCUCAACACAGCGUGGCAAAGUGGCUGUGUGUGGACUGCC | 0.07
GGCAGAGCUCAACACAGCGUGGCAAAGUGGCUGUGUGUAGACUGCG | 0
GGCAGAGCUCAACACAGCGUGGCAAAGUGGCUGUGUGUAGACUUCC | 0.01
GGCAGAGCUCAACACAGCGUGGCAAAGUGGCUGUGUCUAGAAUGCU | 0.1
GGCAGAGCUCAACACAGCGUGGCAAAGUGGCUGUGUCUAAACUUCC | 0.16
GGCAGAGCUCAACACAGCGUGGCAAAGUGGCUGUGUCCAUACUGCC | 0.12
GGCAGAGCUCAACACAGCGUGGCAAAGUGGCUGUGUCGAGACUGCU | 0.02
GGCAGAGCUCAACACAGCGUGGCAAAGUGGCUGUGUCUAGACGUCC | 1
GGCAGAGCUCAACACAGCGUGGCAAAGUGGCUGUGGAUGGACUGUC | 0.04
GGCAGAGCUCAACACAGCGUGGCAAAGUGGCUGUGGAUUGACUGUC | 0.02
GGCAGAGCUCAACACAGCGUGGCAAAGUGGCUGUGGAUAGCCUGUC | 0.01
GGCAGAGCUCAACACAGCGUGGCAAAGUGGCUGUGGAUAGCCUGCA | 0.01
GGCAGAGCUCAACACAGCGUGGCAAAGUGGCUGUGGAUAGGCUGUC | 0.03
GGCAGAGCUCAACACAGCGUGGCAAAGUGGCUGUGGGUCGACUGUC | 0
GGCAGAGCUCAACACAGCGUGGCAAAGUGGCUGUGGGUAGAGUUCC | 0.01
GGCAGAGCUCAACACAGCGUGGCAAAGUGGCUGUGGGAAGUCUGCC | 0.02
GGCAGAGCUCAACACAGCGUGGCAAAGUGGCUGUGGGAAGAUUGCC | 0.04
GGCAGAGCUCAACACAGCGUGGCAAAGUGGCUGUGGUUGGACUGCU | 0
GGCAGAGCUCAACACAGCGUGGCAAAGUGGCUGUGGUUUGACUGUC | 0.05

Variant | self-cleavage
GGCAGAGCUCAACACAGCGUGGCAAAGUGGCUGUGGUUUGACUGCU | 0
GGCAGAGCUCAACACAGCGUGGCAAAGUGGCUGUGGUUAGGCUGAC | 0.11
GGCAGAGCUCAACACAGCGUGGCAAAGUGGCUGUGGUUAGGCUGCU | 0.03
GGCAGAGCUCAACACAGCGUGGCAAAGUGGCUGUGGUUACACUGUC | 0.08
GGCAGAGCUCAACACAGCGUGGCAAAGUGGCUGUGGUCAAACUGCA | 0.02
GGCAGAGCUCAACACAGCGUGGCAAAGUGGCUGUGGUGAUACUGCC | 0
GGCAGAGCUCAACACAGCGUGGCAAAGUGGCUGUGGUUAGACGCCC | 0.02
GGCAGAGCUCAACACAGCGUGGCAAAGUGGCUGUGGCACCACUGCC | 0.05
GGCAGAGCUCAACACAGCGUGGCAAAGUGGCUGUGGCAAGUCUGCG | 0.25
GGCAGAGCUCAACACAGCGUGGCAAAGUGGCUGUGGCAAGAGUAAC | 0
GGCAGAGCUCAACACAGCGUGGCAAAGUGGCUGUGGCAAUAACGCC | 0.22
GGCAGAGCUCAACACAGCGUGGCAAAGUGGCUGUGGCAAGACUACG | 0.07
GGCAGAGCUCAACACAGCGUGGCAAAGUGGCUGUGGCAAGACAGUC | 0.05
GGCAGAGCUCAACACAGCGUGGCAAAGUGGCUGUGGCCUUACUGCC | 0.24
GGCAGAGCUCAACACAGCGUGGCAAAGUGGCUGUGGCCAGUCUGCU | 0.15
GGCAGAGCUCAACACAGCGUGGCAAAGUGGCUGUGGCCAGUCGGCC | 0.08
GGCAGAGCUCAACACAGCGUGGCAAAGUGGCUGUGGCCAAUCUGCC | 0.4
GGCAGAGCUCAACACAGCGUGGCAAAGUGGCUGUGGCCAGACUAUC | 0.06
